Laboratory results as given in paper PMC4336329 (PLoS ONE, 2015).
Screen size: about 310,000 compounds; about 14,000 (4.5%) showed an effect of 50% or more. The effect is printed as a negative number. Some of the results follow.

Molecular target: human ether-à-go-go-related gene (hERG) potassium channel (human, UniProt Q12809)
Assay: primary screen, population patch clamp on CHO cells stably expressing hERG
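Also: peak tail current of the secondary pulse compared with the same well before compound.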

human ether-à-go-go-related gene (hERG) potassium channel, sequence (Q12809 whole entry, looked up): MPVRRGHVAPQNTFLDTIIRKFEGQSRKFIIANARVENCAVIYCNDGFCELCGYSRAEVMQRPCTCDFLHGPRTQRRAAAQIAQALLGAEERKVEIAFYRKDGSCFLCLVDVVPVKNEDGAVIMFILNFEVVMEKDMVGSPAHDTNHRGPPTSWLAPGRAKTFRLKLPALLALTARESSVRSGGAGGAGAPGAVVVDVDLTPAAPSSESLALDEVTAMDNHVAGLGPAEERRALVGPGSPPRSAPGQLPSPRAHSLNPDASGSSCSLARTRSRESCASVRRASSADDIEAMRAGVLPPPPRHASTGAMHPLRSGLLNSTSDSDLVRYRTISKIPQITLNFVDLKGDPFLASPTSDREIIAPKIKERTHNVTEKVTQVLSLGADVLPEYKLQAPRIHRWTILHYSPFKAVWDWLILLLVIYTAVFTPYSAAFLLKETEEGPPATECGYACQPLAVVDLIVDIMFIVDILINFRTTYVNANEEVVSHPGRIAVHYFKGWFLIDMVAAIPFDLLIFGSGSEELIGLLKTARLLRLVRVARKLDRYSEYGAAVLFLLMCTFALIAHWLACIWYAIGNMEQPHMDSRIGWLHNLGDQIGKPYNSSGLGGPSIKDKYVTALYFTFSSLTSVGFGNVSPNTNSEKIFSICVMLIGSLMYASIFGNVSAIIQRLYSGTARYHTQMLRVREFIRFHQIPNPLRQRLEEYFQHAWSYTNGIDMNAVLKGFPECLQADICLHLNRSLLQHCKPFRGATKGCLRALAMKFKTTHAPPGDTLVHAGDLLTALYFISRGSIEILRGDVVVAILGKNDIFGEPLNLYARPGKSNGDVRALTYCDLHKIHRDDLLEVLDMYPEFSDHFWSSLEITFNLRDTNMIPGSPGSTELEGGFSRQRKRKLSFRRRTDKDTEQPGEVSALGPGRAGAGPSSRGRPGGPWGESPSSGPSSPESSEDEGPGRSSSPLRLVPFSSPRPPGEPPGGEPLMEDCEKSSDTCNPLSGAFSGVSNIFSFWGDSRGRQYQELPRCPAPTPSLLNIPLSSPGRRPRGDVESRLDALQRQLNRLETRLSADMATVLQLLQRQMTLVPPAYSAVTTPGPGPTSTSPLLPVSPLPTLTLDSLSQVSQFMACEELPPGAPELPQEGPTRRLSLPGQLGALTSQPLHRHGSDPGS

First: CC1C(=O)Nc2ccccc2N1C(=O)c1c(F)cccc1F (stereo not drawn)
Second: CCOC(=O)N1CC(=O)Nc2ccc(Br)cc2C1c1ccccc1 (stereo not drawn)
The “hERG current change (%, negative = inhibition) at 10uM” value of the first is higher: 7.05% for the first, -24.4% for the second.

Compared with `CNS(=O)(=O)c1cccc(C(=O)OCC(=O)NC(C)CCc2ccccc2)c1` (stereo not drawn), `Cc1cc(C)n(-c2ccc(C(=O)OCC(=O)Nc3ccccc3[N+](=O)[O-])cc2)n1` is lower in “hERG current change (%, negative = inhibition) at 10uM” value: 5.29% for the first, -3.96% for the second.

Compared with `CC1(c2ccccc2)CC(C)(C)N2C(=O)Cc3cccc1c32` (stereo not drawn), `CCN1/C(=C2\C(=O)N(C)C(=S)N2c2ccccc2)C=Cc2ccccc21` is higher in “hERG current change (%, negative = inhibition) at 10uM” value: -24.3% for the first, -21.5% for the second.

Compared with `CCN1CCN(C(=S)NCC(C)C)CC1.O=C(O)C(=O)O`, `CCCOC1CCCN(C(=O)c2cc(Cl)c(Cl)cc2C(=O)O)C1` (stereo not drawn) is higher in “hERG current change (%, negative = inhibition) at 10uM” value: 9.32% for the first, 13.9% for the second.

Going from `COc1ccc(/C=C/C(=O)N(C(C)C)C(C)C)cc1Br` to `CCn1cc(C(=O)N(C)c2cc(C)ccc2OC)c2cc(OC)c(OC)cc2c1=O`, the “hERG current change (%, negative = inhibition) at 10uM” value rises from -4.11% to 8.29%.

Compared with `CCCC(=O)NC(Oc1ccc(C(C)=O)cc1)C(Cl)(Cl)Cl` (stereo not drawn), `COc1ccc(NC(=O)CCN2CCCCC2)cc1` is lower in “hERG current change (%, negative = inhibition) at 10uM” value: 22% for the first, -1.22% for the second.

Going from `O=C(NCCC1CCCCN1S(=O)(=O)c1ccccc1)C(=O)NCc1ccco1` (stereo not drawn) to `C/C(=C\C(=O)N1CCc2ccccc21)C(=O)O`, the “hERG current change (%, negative = inhibition) at 10uM” value rises from -18.7% to 18.5%.

First: Cc1ccc(N(CC(=O)NC(C)c2ccccc2)S(=O)(=O)c2c(C)n[nH]c2C)cc1 (stereo not drawn)
Second: Cc1ccc(-c2noc(CC(c3ccccc3)c3ccccc3)n2)cc1
The “hERG current change (%, negative = inhibition) at 10uM” value of the first is lower: -8.53% for the first, 5.26% for the second.

Compared with `COc1ccc(/C(O)=C2\C(=O)C(=O)N(c3cc(C)on3)C2c2ccc(OC)c(OC)c2)cc1OC` (stereo not drawn), `CCCOc1cccc(C(=O)N/N=C/c2coc3ccccc3c2=O)c1` is higher in “hERG current change (%, negative = inhibition) at 10uM” value: 9.15% for the first, 9.86% for the second.

First: O=S(=O)(Nc1ccc(Cl)cc1)c1cccc2nsnc12
Second: CN1CCN(CCc2nc3cc(NC(=O)COc4ccc(Cl)cc4)ccc3n2C)CC1
The “hERG current change (%, negative = inhibition) at 10uM” value of the first is higher: 7.43% for the first, -61% for the second.

Compared with `CC(=O)c1ccc(NC(=O)CSc2nc(N3CCOCC3)nc(N3CCOCC3)n2)cc1`, `CC1CCCN(C(=O)c2ccccc2OC2CCN(S(C)(=O)=O)CC2)C1` (stereo not drawn) is higher in “hERG current change (%, negative = inhibition) at 10uM” value: -7.67% for the first, 11.1% for the second.

First: O=C(Cc1n[nH]c(=O)c2ccccc12)Nc1cc(Cl)ccc1-n1cncn1
Second: CC1(C)C2C/C(=N\O)C(C)(/[N+]([O-])=C/c3cccc([N+](=O)[O-])c3)CC21 (stereo not drawn)
The “hERG current change (%, negative = inhibition) at 10uM” value of the first is lower: -33.5% for the first, -10.7% for the second.
